Source: PubChem BioAssay AID488969 (Vanderbilt High Throughput Screening Facility, 2010)
Where “and” joins values, the source holds several entries; their conditions need not be identical. Equal entries are not always repeated. Over roughly 110,000 compounds, “z-score” has its median near -0.1; the highest 2% begin near 2. This is one part of the list. Calls of active or inactive are those of the source.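 How the source made its calls: active means z-score in the third read window above 3 or below -3; inactive means the rest.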

Target: Metabotropic glutamate receptor 8 (Rattus norvegicus) (UniProt P70579)
UniProt P70579, sequence (P70579 whole entry, looked up): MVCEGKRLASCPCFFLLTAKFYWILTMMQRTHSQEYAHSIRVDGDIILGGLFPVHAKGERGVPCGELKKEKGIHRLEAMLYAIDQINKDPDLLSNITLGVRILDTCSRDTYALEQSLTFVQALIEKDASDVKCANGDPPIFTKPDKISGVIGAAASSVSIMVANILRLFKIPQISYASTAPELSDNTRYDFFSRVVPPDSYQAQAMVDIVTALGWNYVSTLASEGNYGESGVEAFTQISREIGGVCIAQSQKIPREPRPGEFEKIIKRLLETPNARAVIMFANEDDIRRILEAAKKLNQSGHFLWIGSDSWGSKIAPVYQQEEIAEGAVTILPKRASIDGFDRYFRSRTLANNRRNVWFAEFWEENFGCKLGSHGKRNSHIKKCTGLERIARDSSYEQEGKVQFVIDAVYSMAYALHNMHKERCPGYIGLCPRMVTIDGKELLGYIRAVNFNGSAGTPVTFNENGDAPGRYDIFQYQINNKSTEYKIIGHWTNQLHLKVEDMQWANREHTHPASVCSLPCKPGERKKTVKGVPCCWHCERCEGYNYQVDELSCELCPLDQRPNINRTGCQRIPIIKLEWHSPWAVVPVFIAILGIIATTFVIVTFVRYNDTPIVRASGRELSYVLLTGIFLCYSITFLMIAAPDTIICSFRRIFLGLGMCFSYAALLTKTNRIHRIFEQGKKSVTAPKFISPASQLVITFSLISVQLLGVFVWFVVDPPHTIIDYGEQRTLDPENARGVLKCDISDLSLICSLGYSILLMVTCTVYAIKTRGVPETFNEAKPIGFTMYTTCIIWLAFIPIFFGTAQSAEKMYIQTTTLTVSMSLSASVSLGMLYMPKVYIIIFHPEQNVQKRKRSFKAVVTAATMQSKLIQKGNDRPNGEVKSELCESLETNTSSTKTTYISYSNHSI
Assay: mGluR8 Gi/Go-coupled signaling modulation – cell-based, rat, thallium flux, HTS, primary screen (AID 488969)
Conditions: HEK293 rat mGluR8, GIRK (G protein-gated inwardly rectifying potassium channel) thallium flux, FluoZin2; at 10 µM; stronger effect = higher value; submaximal glutamate (EC20) added with thallium

| Structure (SMILES) | z-score |
| --- | --- |
| CCOC(=O)Cc1c[nH]c2ccccc12 | 0.418 |
| CCSCCOC(=O)C1=C(C)NC(=O)NC1c1ccccc1 (centres undefined) | -0.376 |
| COc1cc(/C=C(\C#N)C(=O)Nc2cccc3ncccc23)cc(OC)c1OC | -0.528 |
| COc1cc(C2C(C(=O)OC(C)C)=C(C)Nc3ncnn32)cc(OC)c1OC (centres undefined) | 0.269 |
| O=C(O)c1cn(-c2ccccc2)nc1-c1ccncc1 | -0.201 |
| CC(=O)/C(=N\Nc1ccccc1Cl)Sc1nnc(-c2ccccc2)n1-c1ccccc1 | -0.107 |
| CCCNC(=O)c1ccc2nc(-c3ccccc3)c(-c3ccccc3)nc2c1 | -0.882 |
| CC(C)[C@H](NC(=O)[C@@H]1CSCN1C(=O)OC(C)(C)C)C(=O)NCC1CCC(C(=O)O)CC1 (some centres undefined) | 0.225 |
| O=C(c1ccccc1S(=O)(=O)NCc1ccccc1)N1CCCCC1 | -0.382 |
| O=C(Nc1nc(=O)c2ccccc2s1)c1ccc(Cl)cc1 | active: 14.9 |
| CO/N=C/CC(=O)Nc1ccc(F)cc1F | 0.22 |
| Cc1ccc(C(=O)Nc2cccc(C(=O)O)c2)cc1S(=O)(=O)N1CCOCC1 | -0.0683 |
| COc1ccc2[nH]c3c(=O)n(CCCCC(=O)N4CCC(C(N)=O)CC4)c(=S)[nH]c3c2c1 | -0.391 |
| N=C(N)SCc1nc2ccccc2c(=O)n1-c1ccccc1 | -0.0818 and -0.341 |
| CCN1CCN(C(c2nnnn2Cc2ccc3c(c2)OCO3)C(C)C)CC1 (centres undefined) | 0.249 |
| CCOC(=O)c1cnc2ccc(OC)cc2c1Nc1ccc2c(c1)OCCO2 | -0.741 |
| O=C(N/N=C/c1cccs1)c1n[nH]c2c1CCC2 | -0.236 |
| O=C1NC(=S)SC1=C1CCCC1 | 1.36 |
| C=CCOC(=O)C1=C(C)NC(C)=C(C(=O)OCC=C)C1c1cccs1 | -0.714 |
| Cn1cc(/C=N/NC(=O)c2cccc([N+](=O)[O-])c2)c2ccccc21 | -0.0885 |
| O=S(=O)(Nc1ccc(-c2nc3cccnc3s2)cc1)c1cccs1 | -0.299 |
| O=c1oc2cc(OCc3ccc(C(F)(F)F)cc3)ccc2cc1-c1ccccn1 | 0.417 |
| CCOC(=O)c1c(-c2cccs2)csc1NC(=O)CNCCN1CCOCC1 | -0.205 |

| Structure (SMILES) | z-score |
| --- | --- |
| O=c1oc2cc(O)ccc2cc1-c1ccc(F)cc1 | -0.21 |
| COc1ccc(S(=O)(=O)N2CCCCCC2)cc1NC(=O)c1c2c(nc3ccccc13)CCN(Cc1ccccc1)C2 | -0.0637 |
| Cc1ccc2cc(C#N)c(NCCNC(=O)C3CC3)nc2c1C | -0.424 |
| O=C(O)CCC(=O)NCCn1c(-c2ccccc2)csc1=Nc1ccccc1 | -0.875 |
| CCCc1[nH]c(=O)c(C#N)c2c1CCCC2 | -0.749 |
| CC(=O)Nc1ccc(S(=O)(=O)Nc2cccc(-c3nc4ccccc4o3)c2)cc1 | -0.164 |
| CCC(C)NC(=O)C1CCN(S(=O)(=O)c2cccc3cccnc23)CC1 (centres undefined) | -0.223 |
| Cc1noc(/C=C/N(C)C)c1S(=O)(=O)N1CCCC(C(=O)NC2CCCCC2)C1 (centres undefined) | -0.19 |
| O=c1[nH]c(Cc2cccs2)nc2ccccc12 | -0.42 |
| COc1cccc(NC(=O)CC2COc3ccccc3O2)c1 (centres undefined) | active: 5.36 |
| COc1cc(NC(=S)NC(=O)c2ccc(C)cc2C)ccc1NC(=O)c1cccs1 | 0.0737 |
| CN1C(=O)COc2ccc(C(=O)c3oc4ccccc4c3-c3cnc4c(c3)COc3ccccc3-4)cc21 | -0.142 |
| C=CCN1C(=O)C(Cc2ccc(F)cc2)S/C1=N/N=C/c1ccco1 (centres undefined) | -0.00476 |
| Cc1ccsc1/C=C(/C#N)C(=O)NCc1ccccc1 | -0.161 |
| O=C(NCc1ccncc1)C1CCCN(S(=O)(=O)Cc2ccccc2)C1 (centres undefined) | -0.193 |
| Cc1ccc(C)c(-n2c(-c3csc(C)c3)n[nH]c2=S)c1 | -0.125 |
| CCN1C(=O)C(CC(=O)Nc2cc(C)ccc2C)SC1=Nc1ccc(S(N)(=O)=O)cc1 (centres undefined) | -0.0644 |
| O=c1[nH]ncc(N2CCN(C(c3ccccc3)c3ccccc3)CC2)c1Cl | 0.0469 |
| COc1cc(OC)cc(-c2cc3nc(C)c(CCC(=O)NC(C)CCc4ccco4)c(C)n3n2)c1 (centres undefined) | -1.18 |
| N=c1c2c(n(Cc3ccc(Cl)cc3)c3c1CCC3)CCC2 | -0.147 |
| Cc1ccc(S(=O)(=O)N/N=C/c2ccc(OCC(=O)NC(C)C)cc2)cc1 | -0.144 |
| CC1Cc2ccccc2N1C(=O)COC(=O)c1ccc(S(=O)(=O)N(C)C)cc1 (centres undefined) | -0.0173 |
| Cc1ccc(NC(=O)c2ccc(Cn3cc([N+](=O)[O-])cn3)cc2)c(C)c1 | -0.473 |

| Structure (SMILES) | z-score |
| --- | --- |
| COCc1cc(C)nc(N2CCOCC2)c1C#N | 0.183 |
| O=S(=O)(Nc1ccncc1Cl)c1ccccc1 | 0.357 |
| NC(=O)c1c(NC(=O)CSc2nnc(-c3ccccc3)n2CC2CCCO2)sc2c1CCC2 (centres undefined) | 0.722 |
| Cc1ccc(N2C(=O)CC(N3CCN(C)CC3)C2=O)cc1 (centres undefined) | -0.215 |
| CN1c2ccccc2N(C)C1c1ccc2c(c1)OCO2 | 0.441 |
| O=C(Cc1ccccc1)Nc1ccc(NC(=O)c2ccco2)nc1 | -0.913 |
| c1cc2nnnn2nc1N1CCCCCC1 | -0.0455 |
| Cc1ccc(CNC(=O)CSc2nc3n[nH]c(C)c3c(=N)n2-c2cccc(C)c2)cc1 | -0.121 |
| CCN1CCN(c2ccc(NC(=O)CCc3c(C)nc4c(-c5ccccc5)c(C)nn4c3C)cc2)CC1 | active: 3.06 |
| CC(=O)c1cccc(NS(=O)(=O)c2ccc(N/C=C/C(=O)c3ccc(F)cc3)cc2)c1 | -0.174 |
| Cc1ccc(S(=O)(=O)c2nc(S(C)(=O)=O)sc2N(C)C)cc1 | 0.113 |
| O=C(Nc1c(F)cccc1F)c1ccc(-n2cncn2)nc1 | -0.106 |
| COc1ccc(C(=O)Nc2c(F)c(F)c(F)c(F)c2F)c(OC)c1 | -0.876 |
| COc1ccc(C)cc1S(=O)(=O)N(C)CC(N)=O | -0.447 |
| NC(=S)N/N=C/c1ccccc1OCCSc1ccc(Cl)cc1 | -0.0247 |
| CN(C)c1nc2c(c(=O)[nH]c(=O)n2C)n1Cc1ccc(F)cc1 | 0.644 |
| CCOc1ccc2nc(NC(=O)CN3CCC(n4nnc5cc(F)ccc54)CC3)sc2c1 | 1.71 |
| C/C(=N\OC(=O)c1ccc(Cl)cc1)c1nccs1 | -0.0963 |
| O=C(Nc1ccc(S(=O)(=O)Nc2nccs2)cc1)c1cc(-c2ccccc2)nc2ccccc12 | -0.29 |
| CCNS(=O)(=O)c1cc(S(C)(=O)=O)ccc1Cl | active: 8.32 |
| CCn1c(NCc2cccs2)nc2ccccc21 | -0.137 |
| O=C(Cn1c(=O)n(CCCCC(=O)NC2CCCC2)c(=O)c2ccccc21)NCCC1=CCCCC1 | -0.381 |
| O=C(O)CCC(=O)NNC(=O)CCC(=O)NCc1ccccc1 | 0.0834 |
